Reference: US20220273768A1 (The George Washington University, priority 2019, published 2022)

System: LepR^b expressing pheochromocytoma PC12 (PC12^LEPRb) cells, Trpm7 current
Assay: Perforated-patch recording of non-selective cation (Trpm7) current in PC12^LEPRb cells
Details: leptin + FTY720 (3 μM)

Question: How did the “leptin-activated non-selective cation channel current” value turn out when CCCCCCCCc1ccc(CCC(N)(CO)CO)cc1 [FTY720] was run?
Answer: completely blocked
